Laboratory results reported in PubChem BioAssay AID1645887 (National Center for Advancing Translational Sciences (NCATS), 2021).
Values joined by “and” are separate entries in the source; they are usually repeats but may differ in a detail not shown here. Equal values may be shown once. In all, about 16,000 compounds went through this assay and about 40 (0.2%) were called active. Roughly 1% stayed inconclusive and do not appear here. The call rests on the fitted dose curve; in most records, active means well fitted activation curve with a large enough effect; inconclusive means small, poorly fitted or top-dose-only effect, or another doubt; inactive means no such curve, though single readings can be large or run the other way. Some of the results follow.

Each compound was assayed against Rap guanine nucleotide exchange factor 4 (Homo sapiens) (UniProt Q8WZA2) (assay: Validation qHTS for agonist of cAMP-regulated guanine nucleotide exchange factor 4 (EPAC2)). Details: EPAC2 Rap1B BODIPY-GDP exchange, fluorescence; activation: hits give high values.
Chain of UniProt Q8WZA2 (Q8WZA2 whole entry, looked up): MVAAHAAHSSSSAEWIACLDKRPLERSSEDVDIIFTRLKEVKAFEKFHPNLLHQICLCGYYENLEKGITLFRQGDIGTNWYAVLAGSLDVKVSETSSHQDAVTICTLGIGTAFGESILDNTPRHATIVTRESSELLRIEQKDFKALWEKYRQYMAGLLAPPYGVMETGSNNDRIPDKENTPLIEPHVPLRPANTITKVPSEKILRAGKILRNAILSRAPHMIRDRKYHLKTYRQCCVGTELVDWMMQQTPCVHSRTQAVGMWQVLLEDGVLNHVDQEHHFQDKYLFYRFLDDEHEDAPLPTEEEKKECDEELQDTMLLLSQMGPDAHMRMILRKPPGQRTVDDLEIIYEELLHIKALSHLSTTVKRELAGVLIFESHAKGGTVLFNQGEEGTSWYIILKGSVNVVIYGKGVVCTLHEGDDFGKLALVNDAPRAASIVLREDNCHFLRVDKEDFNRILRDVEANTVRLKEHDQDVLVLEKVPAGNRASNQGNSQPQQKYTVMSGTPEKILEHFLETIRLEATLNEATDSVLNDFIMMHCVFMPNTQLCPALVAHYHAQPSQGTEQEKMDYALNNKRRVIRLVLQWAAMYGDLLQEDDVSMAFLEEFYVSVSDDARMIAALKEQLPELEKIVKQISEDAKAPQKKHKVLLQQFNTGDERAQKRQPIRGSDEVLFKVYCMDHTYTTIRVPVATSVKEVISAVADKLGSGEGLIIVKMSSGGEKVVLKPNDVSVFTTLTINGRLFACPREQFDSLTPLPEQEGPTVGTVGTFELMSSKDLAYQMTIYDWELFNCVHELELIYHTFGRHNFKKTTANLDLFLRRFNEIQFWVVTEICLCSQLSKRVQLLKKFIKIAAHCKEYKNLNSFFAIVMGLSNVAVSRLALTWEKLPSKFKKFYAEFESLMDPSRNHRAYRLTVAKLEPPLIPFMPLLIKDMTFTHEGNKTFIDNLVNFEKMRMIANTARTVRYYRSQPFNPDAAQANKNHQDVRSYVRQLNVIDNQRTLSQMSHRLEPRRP
Outline: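 Signal normalized against 6.5 mM cAMP as agonist control. Mix of EPAC2 (100 nM), RAP1B-BODIPY-GDP (250 nM) and GDP (50 uM) was read kinetically at 480/540 nm, every 5 min over 30 min, after 5 min room-temperature incubation with compound.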
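Further: exchange makes BODIPY-GDP fluorescence drop when released from Rap1B; series mostly up to about 150 µM.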
On the % scale 0 is the no-effect control and ±100 the full control effect.

activation, inactive:
CC(=O)N[C@@H](C=O)[C@H](O)[C@H](O)[C@@H](O)CO -13.3% and -5.15%, CC(=O)Oc1ccc2c(c1C(C)C)CCC1C(C)(C)CCC[C@@]21C (some centres undefined) 18.7%, COc1ccc(C(=O)N2CCC[C@@]3(CCN(Cc4ccccc4OC)C3)C2)cc1 2.26%, O=C(CCCN1CC=C(n2c(=O)[nH]c3ccccc32)CC1)c1ccc(F)cc1 3.75% and -7.24%, O=c1cnc2cnc(Nc3ccccc3)nc2n1C1CC1 6.8%, C=CC(C1=CC(=O)C=CC1=O)c1ccc(O)cc1 (centres undefined) 8.18%, CC(=O)NCCNc1nc(-c2cccc(NS(C)(=O)=O)c2)nc2ccccc12 -15.2%, Cc1c(C(=O)NCC2(N3CCCCC3)CCCC2)cnn1-c1nccc(-c2ccccc2F)n1 -1.69%, CCC(=O)O -12.9%, C=NCc1cc2c(OC[C@@H](O)CNC(C)(C)C)cccc2[nH]1 -3.68%, CN(C)C(=O)c1ccc(-c2nc(NCc3cccnc3)c3ccccc3n2)cc1 -2.74%, CCN(CC)CCNC(=O)c1cc(S(C)(=O)=O)ccc1OC -21.3% and 3.56% and 10.2%, CCCCCCCCCCCCC/C=C\[C@@H](O)[C@H](CO)NC(C)=O -54.3%, CCCCCCCC/C=C\CCCCCCCC(=O)N[C@@H](CO)Cc1ccc(O)cc1 -54.1%, COc1cc(-c2cc(C)c3cccc(OC)c3n2)cc2c1OCCN(C(=O)Cn1nc(C)cc1C)C2 -3.12%, Cc1cc2c(cc1C)N[C@]1(C[C@H]3CCCC(=O)N4CC[C@@H](C1)[C@@H]34)C(=NC(C)(C)CC(C)(C)C)N2 -45.2%, Oc1c(I)cc(I)c2cccnc12 4.07%, CC1CCC(=O)N(CCSc2ccccc2)CC1 (centres undefined) -12.9%, Cc1ccc2nc(SCC(=O)N3CCC4(CC3)CC4C(=O)Nc3ccc(F)c(F)c3)[nH]c2c1 (centres undefined) 4.21%, CCCCCCCC/C=C\CCCCCCCC(=O)OC[C@@H](O)COP(=O)(O)O 3.17%, COc1ccc(/C=C/C(=O)OCCC(C)C)cc1 -25.4%, O=C1CCN(Cc2ccccc2)CCN1[C@H](CSc1ccccc1)Cc1ccccc1 -15.6%, C=C1CC[C@H](O)CC1=C/C=C1\CCC[C@]2(C)[C@@H]([C@H](C)CCCC(C)(C)O)CC[C@@H]12 -2.49%, COCC(=O)N1CCC2(CCCN(c3ccc(-c4ccccc4)cc3)C2)CC1 4.08%, COc1ccc(-c2nc3cnc(N(C)C)nc3n(C)c2=O)cc1 -4.52%, CCn1c(-c2ccccc2F)nc2cc(C(=O)N3CCCC(CO)C3)cc(NC(C)=O)c21 (centres undefined) 7.68%, CC(=O)OC1C(=O)[C@@]2(C)C(O)CC3OC[C@]3(OC(C)=O)C2C(OC(=O)c2ccccc2)[C@]2(O)CC(OC(=O)C(O)C(NC(=O)c3ccccc3)c3ccccc3)C(C)=C1C2(C)C (some centres undefined) -4.64%, COc1c2ccccc2nc2occc12 -7.55%, O=c1[nH]c2ccccc2c2ccccc12 4.81% and -7.63%, C#CCN(C)Cc1ccccc1 -10.2% and -21.4%, Cc1c(C(=O)N2CCCC2)sc2ncnc(NCCN(C)C)c12 -10.6%, CCn1cc(C(=O)O)c(=O)c2ccc(C)nc21 6.23% and 7.27% and -19.2%, C=C(NC(=O)C(=C)NC(=O)c1csc(C2=N[C@@H]3c4csc(n4)[C@H]4NC(=O)c5csc(n5)[C@H]([C@](C)(O)[C@@H](C)O)NC(=O)[C@H]5CSC(=N5)C(=CC)NC(=O)C([C@@H](C)O)NC(=O)c5csc(n5)[C@]3(CC2)NC(=O)[C@H](C)NC(=O)C(=C)NC(=O)[C@H](C)NC(=O)C([C@@H](C)CC)NC2C=Cc3c([C@H](C)O)cc(nc3C2O)C(=O)O[C@@H]4C)n1)C(N)=O (some centres undefined) -36.6%, Cc1cc(C)cc(C(=O)N(C)[C@H](Cc2ccc(-c3ccccc3)cc2)C(=O)N[C@@H](Cc2c[nH]c3ccccc23)C(=O)O)c1 -21.4%, CC(=O)Nc1ccc(C(=O)N2CCCC(n3cc(C(=O)NCC(C)C)nn3)C2)cc1 (centres undefined) -2.55%, COC(=O)[C@]1(C)CCC[C@]2(C)c3ccc(C(C)C)cc3C(=O)CC12 (some centres undefined) -7.26%, CCCCCc1ccc(C)cc1O -46.1%, CCCCCC(C)N (centres undefined) 6.18%, CC(C)CN1CC2(CCN(C(=O)c3csnn3)CC2)C1 0.654%, COc1ccc2cc(CCC(C)=O)ccc2c1 4.51% and -29%, O=C(O)CCC(=O)OC[C@@H](NC(=O)C(Cl)Cl)[C@H](O)c1ccc([N+](=O)[O-])cc1 9.7%, Cc1cccc(/C=C/c2ccccc2)n1 -0.748% and -21%, C=C[C@H](N)CCC(=O)O -10.7%, Nc1ncnc2c1nc(Br)n2C1CC(O)C(CO)O1 (centres undefined) -4.78%, Nc1nc(SCc2ccc([N+](=O)[O-])cc2)c2ncn([C@@H]3O[C@H](CO)[C@@H](O)[C@H]3O)c2n1 -1.95%, COc1ccc(CCN2CCC(Nc3nc4ccccc4n3Cc3ccc(F)cc3)CC2)cc1 4.12% and -15.2%, CN(C)CCOC1=Cc2ccccc2Sc2ccc(Cl)cc21 -10.8%, CCN(Cc1ccncc1)C(=O)C(CO)c1ccccc1 (centres undefined) 0.574% and 1.24% and 0.103%, COc1ccccc1CN1CC2(CCN(C(=O)c3cc(C(F)(F)F)cc(C(F)(F)F)c3)CC2)C1 -21.1%, CS(=O)(=O)Nc1cccc(-c2ccc3ncnc(Nc4ccccc4)c3c2)c1 5.52%, N=C(N)c1ccccc1 -11.3%, COc1cccc(Cn2c(=O)c(-c3ccc(F)cc3)nc3cncnc32)c1 -0.492%, Cc1ccccc1-c1ccc2ncnc(NC3CC3)c2c1 -9.43%, COc1ccc(CNc2ncnc3ccc(-c4ccccc4CN(C)C)cc23)c(OC)c1 -12.6%, CN(C)Cc1ccccc1-c1ccc2ncnc(N3CCOCC3)c2c1 -16.3%, CCCCCCCCCCCCCCCCCCN(CCCCCCCCCCCCCCCCCC)c1ccc(/C=C/c2ccnc3ccccc23)cc1 -21.8%, CC(=O)NCCNc1nc(-c2ccccc2CN(C)C)nc2ccccc12 -19.9%, CCC(C)C(=O)OC1C2CC3=C4CC(=O)OC(c5ccoc5)[C@]4(C)CCC3[C@@](C)(C2=O)C(CC(=O)OC)C1(C)C (some centres undefined) -13.2%, O=C(NCCNCC(O)COc1ccc(O)cc1)N1CCOCC1 (centres undefined) -29.4%, COC(=O)[C@@H]1CCCN1Cc1ccc2c(c1)CN(Cc1cccn1-c1ncccn1)CCO2 -4.52%, Cc1nc2sccn2c1CN1CCC2(CC1)CC2C(=O)Nc1ccc2c(c1)OCO2 (centres undefined) -5.94%, CCN(CC)CCSC(=O)C(c1ccccc1)c1ccccc1 11.6% and -19.8%, Cn1c(=O)c(-c2ccc(Cl)cc2)nc2cnc(Oc3cccc(Cl)c3)nc21 5.61%, COc1ccc2ccccc2c1CN1CCc2nnc(C(NS(C)(=O)=O)C(C)C)n2CC1 (centres undefined) -23.7%, COc1cc(CN2CCC3(CCC(CNC(=O)c4cc(C)nn4C)O3)CC2)ccc1F (centres undefined) 2.25%, CC[C@@H](C)[C@H]1O[C@]2(CC[C@H]1C)C[C@@H]1C[C@@H](CC=C(C)[C@@H](O[C@H]3C[C@H](OC)[C@@H](O[C@H]4C[C@H](OC)[C@@H](O)[C@H](C)O4)[C@H](C)O3)[C@@H](C)C=CC=C3CO[C@@H]4[C@H](O)C(C)=C[C@@H](C(=O)O1)[C@]34O)O2 -73.6%, CNc1ncncc1-c1ccccc1C 0.301%, COCCn1c(=O)c(-c2ccccc2)nc2cnc(Oc3ccccc3)nc21 2.26%, OC(CCN1CCCCC1)(c1ccccc1)C1CC2C=CC1C2 (centres undefined) 1.75% and -9.32% and -17.9%, COc1cc(=O)n2c(c1C(=O)NC(C)c1ccco1)CCN(Cc1cc(C)ccc1C)CC2 (centres undefined) 3.03%, C[C@@]12C(=O)OC(=O)[C@]1(C)C1CCC2O1 11.2%, Cc1ncc([N+](=O)[O-])n1CCO -23.7%, CSCC[C@H](NC(=O)[C@H](Cc1ccccc1)NC[C@@H](NC[C@@H](N)CS)C(C)C)C(=O)O -4.71%, CCc1nc2cc(C(=O)N3CCC[C@H]3CO)cc(NC(=O)c3ccccc3OC)c2n1C 5.12%, COc1ccccc1CNc1nc(-c2ccccc2OC)nc2ccccc12 17%, CCN(CC)CC#CCOC(=O)C(O)(c1ccccc1)C1CCCCC1 (centres undefined) -15.8% and -27.5%, C=C(c1ccc2ccccc2n1)c1cccs1 -7.73%, COc1ccc(CN2CC[C@H]3C=CC[C@@H](C(=O)NC4CCCCC4)[C@H]3C2=O)cc1OC -7.22%, COCCNc1ncnc2ccc(-c3ccccc3C(F)(F)F)cc12 -24.1%
